# Reference: PubChem BioAssay AID1030 (National Center for Advancing Translational Sciences (NCATS), 2008)
# The whole screen tested about 220,000 compounds, of which about 16,000 (7.3%) were called active. This list was built around the results that the source calls inconclusive (neither active nor inactive); the mix of calls is not that of the screen. Calls follow the shape of the dose curve; as a rule, active = well fitted inhibition curve with a large enough effect (not every such curve was filed as active); inconclusive = small, poorly fitted or top-dose-only effect, or another doubt; inactive = no such curve, though single readings can be large or run the other way. No potency is given beside an inconclusive call; the fits are too rough.
# Target: Aldehyde dehydrogenase 1A1 (Homo sapiens) (UniProt P00352)
# UniProt P00352, sequence (P00352 whole entry, looked up): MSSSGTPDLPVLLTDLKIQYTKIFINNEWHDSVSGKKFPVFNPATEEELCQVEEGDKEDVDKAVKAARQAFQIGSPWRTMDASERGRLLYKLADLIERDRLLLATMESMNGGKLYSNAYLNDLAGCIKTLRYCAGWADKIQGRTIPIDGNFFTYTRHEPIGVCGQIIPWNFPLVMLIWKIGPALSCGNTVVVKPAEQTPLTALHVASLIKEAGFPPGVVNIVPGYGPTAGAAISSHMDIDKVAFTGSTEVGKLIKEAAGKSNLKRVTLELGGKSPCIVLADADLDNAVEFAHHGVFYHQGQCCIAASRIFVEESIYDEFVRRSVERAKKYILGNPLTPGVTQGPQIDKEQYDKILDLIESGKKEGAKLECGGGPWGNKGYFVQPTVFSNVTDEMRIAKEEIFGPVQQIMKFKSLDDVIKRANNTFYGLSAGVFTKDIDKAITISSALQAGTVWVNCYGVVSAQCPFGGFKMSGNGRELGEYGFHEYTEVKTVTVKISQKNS
# Test: qHTS Assay for Inhibitors of Aldehyde Dehydrogenase 1 (ALDH1A1);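 as to activity, negative = inhibition: plate controls were no enzyme wells and a reference inhibitor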
# Conditions: Purified ALDH1A1, NADH fluorescence, propionaldehyde substrate; series mostly up to 75.3 µM
# Potency is read from the fitted curve at half-maximal effect; tags tell the direction and shape of the fitted curve.
Structure (SMILES),Potency,"activity, negative = inhibition"
C=CCNC(=O)COC(=O)c1ccc(C)c(NC(=O)c2ccco2)c1,"inconclusive [inhibitor, single point]",–
Cc1ccc2nc(NCc3ccco3)c(C=NCc3ccco3)c(=O)n2c1,"inconclusive [inhibitor, partial curve]",–
O=C(Cc1ccccc1)Nc1ccc2oc(-c3cccnc3)nc2c1,"inconclusive [inhibitor, partial curve]",–
CCOC(=O)C(=CNc1ccc(C#N)cc1)C(=O)OCC,inactive,–
CC#CCN1c2ccccc2[C@]23C[C@@H](C(=O)OC)N(C(=O)COCc4ccccc4)C2=NC(C(=O)OC)=C(C(=O)OC)[C@H]13,–,inactive: 10.4% [at 13.5 µM]
O=c1[nH][nH]c(C(F)(F)F)c1C=NCc1cccs1,inactive,–
CN(Cc1nc(-c2cccnc2)no1)S(=O)(=O)c1ccccc1,"inconclusive [inhibitor, single point]",–
COc1ccccc1C(c1nnnn1C(C)(C)C)N1CCN(C(=O)c2ccco2)CC1 (stereo not given),active: 25.1 µM,–
COc1ccccc1CC(=O)N1CCN(c2ccc([N+](=O)[O-])cc2)CC1,"inconclusive [inhibitor, single point]",–
O=C1C2CC=C(Cl)CC2C(=O)N1CCc1ccccc1 (stereo not given),"inconclusive [inhibitor, single point]",–
O=C(NC(=S)NNC(=O)[C@H]1C[C@@H]1c1ccccc1)c1cccc(F)c1,active: 22.4 µM,–
Nc1ncnc2c1ncn2[C@@H]1O[C@H](COP(=O)(O)OP(=O)(O)OC[C@H]2OC(O)[C@H](O)[C@@H]2O)[C@@H](O)[C@H]1O (stereo not given in full),inactive,–
NNC(=O)c1ccncc1,inactive,–
CN(C(=O)CCCOc1ccc2[nH]c(=O)ccc2c1)C1CCCCC1,"inconclusive [inhibitor, single point]",–
CCOC(=O)N1CCC(NCCNC(=O)c2ccc(Cl)cc2)CC1,"inconclusive [inhibitor, single point]",–
Cc1ccc(Nc2nc(N)c(C#N)c(CC#N)c2C#N)cc1,"inconclusive [inhibitor, single point]",–
COc1ccccc1/C=C1\SC(=O)N(CCC(=O)NNC(=O)c2ccccc2Cl)C1=O,"inconclusive [inhibitor, single point]",–
COC(=O)c1ccccc1NC1=C/C(=N\S(=O)(=O)c2cccs2)c2ccccc2C1=O,active: 3.16 µM,–
CC(Nc1cc(N2CCN(S(=O)(=O)N(C)C)CC2)ccc1[N+](=O)[O-])c1ccccc1 (stereo not given),"inconclusive [inhibitor, full curve]",–
CCSc1nnc(NC(=O)c2ccc3c(c2)OCO3)s1,"inconclusive [inhibitor, single point]",–
COC(=O)CN1C(=O)N/C(=C/c2cc(Cl)c(OC)c(OC)c2)C1=O,active: 3.98 µM,–
O=C(CCN1C(=O)C2CC=C(Cl)CC2C1=O)NCc1ccccc1 (stereo not given),"inconclusive [inhibitor, single point]",–
CC(C)NC(=S)Nc1ccc(Oc2ccccc2)cc1,"inconclusive [inhibitor, single point]",–

Structure (SMILES),Potency,"activity, negative = inhibition"
CCOC(=O)c1cc2c(=O)n3cccc(C)c3nc2n(Cc2ccco2)c1=NC(=O)c1ccccc1,"inconclusive [inhibitor, partial curve]",–
CCOC(=O)CSc1nc2ccc(NC(=O)CSc3nnnn3Cc3ccccc3)cc2s1,active: 14.1 µM,–
NC[C@H]1O[C@@H](n2cnc3c(=O)[nH]c(N)nc32)[C@@H](O)[C@@H]1O,–,inactive: 3.25% [at 13.5 µM]
O=C(NCCCN1CCN(CCCNC(=O)c2ccc3c(c2)OCO3)CC1)c1ccc2c(c1)OCO2,"inconclusive [inhibitor, single point]",–
O=C(CSCc1ccc(Cl)cc1)Nc1nccs1,inactive,–
COc1ccc(CC(=O)O/N=C(\N)Cc2cccc3ccccc23)cc1OC,inactive,–
Cc1ccc(N(CC(=O)NCc2ccc(F)cc2)S(=O)(=O)c2cccs2)cc1,inactive,–
Cc1ccc(-n2ncc3c2ncn2nc(-c4ccco4)nc32)c(C)c1,"inconclusive [inhibitor, single point]",–
OC1CCCN(c2ncnc3c2nnn3Cc2c(F)cccc2Cl)C1 (stereo not given),active: 7.94 µM,–
N#CC(C(=O)NC1CCCCC1)c1nc2ccccc2nc1N1CCN(c2ccccc2F)CC1 (stereo not given),"inconclusive [inhibitor, single point]",–
O=C(NCc1ccco1)Nc1ccc2nsnc2c1,"inconclusive [inhibitor, single point]",–
O=C(Nc1ccc2ccccc2c1)NC1CCS(=O)(=O)C1 (stereo not given),inactive,–
CCc1nnc(NC(=O)c2c(C)nn(-c3ccccc3)c2Cl)s1,"inconclusive [inhibitor, single point]",–
COc1ccc(Oc2ccc(NC(=O)c3ccccc3C)cc2)cc1,inactive,–
O=C(NC(NC(=S)Nc1ccccc1C(=O)O)C(Cl)(Cl)Cl)c1ccco1 (stereo not given),"inconclusive [inhibitor, partial curve]",–
COc1ccc(OC)c(NC(=O)COc2ccc(S(=O)(=O)NC(C)C)cc2)c1,"inconclusive [inhibitor, single point]",–
O=C(CCS(=O)(=O)Cc1ccccc1)N1CCN(c2ccccc2)CC1,"inconclusive [inhibitor, single point]",–
Cc1ccc(OCCCC(=O)N2CCOCC2)cc1,inactive,–
COc1ccc(S(=O)(=O)N(CC(=O)Nc2cc(C)on2)Cc2ccccc2)cc1,"inconclusive [inhibitor, partial curve]",–
COc1ccc2cc(C(=O)c3ccccc3)c(=O)oc2c1,active: 14.1 µM,–
COc1cc(NC(=S)NC(=O)c2cccs2)ccc1NC(=O)C(C)C,"inconclusive [inhibitor, single point]",–
CCOC(=O)c1c(C)[nH]c(C2=NNC(=Nc3ccc(OCC)cc3)SC2)c1C,"inconclusive [inhibitor, partial curve]",–
